# Data as given in PubChem BioAssay AID652106 (National Center for Advancing Translational Sciences (NCATS), 2013).
# The campaign covered roughly 370,000 compounds. About 500 (0.14%) were called active. Inconclusive results, whose numbers are uncertain, are shown with a selection of clear calls. The call rests on the fitted dose curve; in most records, active means well fitted activation curve with a large enough effect; inconclusive means small, poorly fitted or top-dose-only effect; inactive means no such curve, though single readings can be large or run the other way. No potency is given beside an inconclusive call; the fits are too rough.
# Assay: qHTS of alpha-syn Inhibitors; further: nearly all actives have a fitted effect of over 65% in size
# Details: Yeast expressing alpha-synuclein, BacTiter-Glo, 24 h; Potency: growth rescue unless noted; series mostly up to 46.1 µM
# Outline: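 Galactose-induced alpha-syn yeast (OD600=0.02, raffinose-pregrown) + pinned cpd, 24 hr, 30 deg C; growth by BacTiter-Glo luminescence. Growth restoration scores as activation.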
# Potency means the concentration at half of the fitted maximal effect; tags describe the fitted curve by direction and shape.
row,Structure (SMILES),Potency
1,O=C(O)Cc1cc2c(s1)CCCCC2,inactive
2,Cc1ccc(NC2=C([N+](=O)[O-])CS(=O)(=O)C2)cc1,"inconclusive [activator, single point]"
3,Cc1c(C(=O)NCc2ccc(F)cc2)sc(=O)n1Cc1ccc(Cl)c(Cl)c1,"inconclusive [activator, single point]"
4,CC1CCN(C(=O)CCS(=O)(=O)c2cc3c(cc2Cl)NC(=O)CO3)CC1,"inconclusive [activator, single point]"
5,CC1=C(CC[C@@H](C)CO)OC2CC3C4CCC5CC(O)CCC5(C)C4CC(=O)C3(C)C12 (stereo partly specified),"inconclusive [activator, single point]"
6,O=C(CN1CCN(c2ccccc2O)CC1)NC(=O)NCc1ccccc1,"inconclusive [activator, single point]"
7,Cc1nc(N(C)Cc2ccccc2)c2c(C)c(C)sc2n1,"inconclusive [activator, single point]"
8,OC(c1cccc(Cl)c1)c1nc(-c2ccccc2)cs1 (stereo unspecified),"inconclusive [activator, single point]"
9,CCOc1ncccc1C(=O)OCC(=O)NC(=O)c1ccccc1,"inconclusive [activator, single point]"
10,O=C(CN1CCC(NC(=O)c2ccccc2F)CC1)Nc1ccc2c(c1)OCO2,"inconclusive [activator, single point]"
11,Cc1ccc(OCCn2c(=O)n(C)c3ccccc32)cc1,"inconclusive [activator, single point]"
12,CCCCC(=O)NC(c1ccc(Cl)cc1Cl)c1ccc2cccnc2c1O (stereo unspecified),"inconclusive [activator, single point]"
13,OC(c1cccc(Cl)c1)c1ncc(-c2ccc(Oc3ccccc3)cc2)[nH]1 (stereo unspecified),"inconclusive [activator, single point]"
14,O=C1OCCC1Sc1nc2ccccc2c(=O)n1Cc1ccc(F)cc1 (stereo unspecified),"inconclusive [activator, single point]"
15,CCN(CC(=O)NCc1cccs1)C(=O)/C=C/c1cc(OC)c(OC)c(OC)c1,inactive
16,Cc1cc([N+](=O)[O-])ccc1-c1ccc(C2Nc3ccccc3C(=O)N2O)o1 (stereo unspecified),"inconclusive [activator, single point]"
17,COc1ccc(Nc2nc3cc(-c4ccccc4C)sc3c(=O)n2C)cc1OC,"inconclusive [activator, single point]"
18,CCN1C(=O)[C@H]2[C@@H](c3ccc(-c4ccc(Cl)c(Cl)c4)c(OC)c3)N3CCCC[C@@]3(C(=O)OC)[C@H]2C1=O,"inconclusive [activator, partial curve]"
19,CCCCCOc1ccc(C(=O)Nc2ccc(N3CCOCC3)cc2N2CCOCC2)cc1,"inconclusive [activator, single point]"
20,COc1cccc(C(=O)Nc2nnc(-c3ccc(F)cc3)o2)c1,active: 10 µM
21,COc1ccc(C(=O)CSc2[nH]c(=O)cc(C(F)(F)F)c2C#N)cc1,"inconclusive [activator, single point]"
22,Fc1ccccc1Cn1cc(C(=S)N2CCOCC2)c2ccccc21,active: 20 µM

row,Structure (SMILES),Potency
1,COc1ccc(N2CCN(C(=O)CSc3nnc(C4CC4)n3C3CC3)CC2)cc1,"inconclusive [activator, single point]"
2,N#CC1(NC(=O)COC(=O)Cc2c[nH]c3ccccc23)CCCCC1,"inconclusive [activator, single point]"
3,COc1ccc(CCNC(=O)c2ccc(Cl)c(S(=O)(=O)N3CCCC3)c2)cc1,"inconclusive [activator, single point]"
4,COc1cc(C(=O)NCCCN2CCCC2=O)cc(Br)c1OCc1ccccc1,"inconclusive [activator, single point]"
5,Cc1ccc(C(=O)N(C)CC(=O)Nc2ccc(Cl)c(C(F)(F)F)c2)cc1S(=O)(=O)N1CCCCC1,"inconclusive [activator, single point]"
6,CCOC(=O)C1=NN(C(=O)c2ccc(C)cc2)C(O)(c2ccc(Cl)cc2)C1 (stereo unspecified),"inconclusive [activator, single point]"
7,O=C(NCc1ccc(F)cc1)c1cc(S(=O)(=O)N2CCOCC2)ccc1F,"inconclusive [activator, single point]"
8,CCOC(=O)C1CCCN(C(=O)c2ccc3c(=O)n(Cc4ccccc4OC)c(=S)[nH]c3c2)C1 (stereo unspecified),"inconclusive [activator, single point]"
9,O=C(Nc1nnc(SCc2ccc(F)cc2)s1)c1cccnc1Cl,inactive
10,Cc1cc(C)n2c(Br)c(CSc3nc4ccccc4s3)nc2n1,"inconclusive [activator, single point]"
11,CCOC(=O)c1c(NC(=O)C(C)Sc2c[nH]c3ccccc23)sc2c1CCC2 (stereo unspecified),"inconclusive [activator, single point]"
12,Cc1nn(CC(=O)Nc2cccc(C(F)(F)F)c2)c(=O)c2cccn12,active: 6.31 µM
13,COC(=O)[C@H](Cc1ccccc1)NS(=O)(=O)c1ccc(F)cc1Br,"inconclusive [activator, single point]"
14,CCOC(=O)c1cc(C)nc(Sc2ccc(C)cc2)c1C#N,inactive
15,COc1ccc(-c2nc(NC(=O)CSCCO)sc2C)cc1,inactive
16,CCOC(=O)c1c(CN2CCCCC2)n(C)c2cc(Br)c(O)cc12,"inconclusive [activator, single point]"
17,O=C(Nc1ccc(NC(=O)c2cccs2)cc1)c1ccc2c(c1)OCCO2,"inconclusive [activator, single point]"
18,COC(=O)CN(c1nc(C)cc(OC)n1)S(=O)(=O)c1ccccc1,"inconclusive [activator, single point]"
19,COc1ccccc1N1CCN(C(=O)c2cc(-c3ccccc3)nc3c2cnn3C(C)C)CC1,"inconclusive [activator, single point]"
20,CC(=O)Oc1ccc2oc3c(c2c1)C(=O)CCC3,"inconclusive [activator, single point]"
21,CCOC(=O)c1ccc2nc(C)cc(Nc3ccc(OC(C)C)cc3)c2c1,inactive
22,CCn1c(C)c(C)c2cc(C(=O)N3CCCC3)ccc21,inactive

row,Structure (SMILES),Potency
1,CC(Nc1cccc2ccccc12)C(=O)N/N=C/c1ccccn1 (stereo unspecified),"inconclusive [activator, single point]"
2,O=C(Cc1cccs1)NNC(=S)NC(=O)c1ccc(F)c(F)c1,"inconclusive [activator, single point]"
3,CCOC(=O)c1sc(NC(=O)Cn2nnc3sc4c(c3c2=O)CCCC4)nc1C,"inconclusive [activator, partial curve]"
4,NC(=O)N=Nc1c2[nH]c3ccccc3nc-2c2ccccc12,"inconclusive [activator, single point]"
5,COc1ccc2sc(-c3ccccc3OC)c(-c3ccc(SC)cc3)c2c1,"inconclusive [activator, single point]"
6,Fc1ccc(CNC(=S)Nc2ccc(Cl)cc2)cc1,inactive
7,COc1cc(C(O)c2nc(-c3ccc(C)c(C)c3)cs2)ccc1F (stereo unspecified),"inconclusive [activator, single point]"
8,Cc1cc(/C=N/n2c(COc3ccccc3)nc3ccccc3c2=O)c(O)c([N+](=O)[O-])c1,"inconclusive [activator, single point]"
9,CC(=O)c1cnc(Oc2cc(Cl)ccc2Cl)nc1C,inactive
10,O=C(NCc1ccccc1)C1=C[C@H](c2ccc(Br)cc2)C[C@H](OCc2ccc(CO)cc2)O1,"inconclusive [activator, single point]"
11,COc1ccc(/C=C/c2ccc3cccc(O)c3n2)c(OC)c1OC,"inconclusive [activator, single point]"
12,Cc1cc2nccc(-c3ccc(Cl)cc3Cl)n2n1,inactive
13,Cc1cc(/C=N/n2c(COc3ccccc3C)nc3ccccc3c2=O)c(O)c([N+](=O)[O-])c1,"inconclusive [activator, single point]"
14,COc1ccccc1C(=O)O/N=C(\c1ccccc1)c1ccncc1,"inconclusive [activator, single point]"
15,O=C(NNC(=S)Nc1ccc(Cl)c(Cl)c1)c1ccccn1,active: 10 µM
16,CCCn1c(SC(C)C(=O)NCC2CCCO2)nc2cc(Cl)ccc2c1=O (stereo unspecified),"inconclusive [activator, partial curve]"
17,Cc1cccc(C(=O)N2CCC(=O)N([C@H](COCc3cccc(Cl)c3)Cc3ccccc3)CC2)c1,"inconclusive [activator, single point]"
18,COc1ccc(N2CCN(C(=O)COCc3cc(-c4ccc5c(c4)OCO5)on3)CC2)cc1,inactive
19,Cc1c(C)n(CC(O)CNc2ccccc2)c2ccccc12 (stereo unspecified),"inconclusive [activator, single point]"
20,COc1ccc(C2CC(c3ccco3)n3ncnc3N2)cc1 (stereo unspecified),"inconclusive [activator, single point]"
21,CC1CC1C(=O)Nc1ccc(-c2ccccc2)cc1 (stereo unspecified),"inconclusive [activator, single point]"
22,COc1ccc2c(c1)CCC1(C)CC(=O)C(Br)=C21 (stereo unspecified),"inconclusive [activator, full curve, poor fit]"
